Among all 390,000 compounds or so, about 360 (0.092%) were called active. Inconclusive means that the source gave no clear call. Such entries were picked first, then a sample of the others. Calls come from the whole dose curve; as a rule, active = well fitted inhibition curve with a large enough effect; inconclusive = small, poorly fitted or top-dose-only effect; inactive = no such curve, though single readings can be large or run the other way. Potencies beside an inconclusive call are fits to weak or partial responses and may not hold up.
These molecules were tested against Isocitrate dehydrogenase [NADP] cytoplasmic (Homo sapiens) (UniProt O75874) (assay: qHTS for Inhibitors of mutant isocitrate dehydrogenase 1 (IDH1): qHTS). Conditions: IDH1-R132H enzyme, NADPH consumption, diaphorase/resazurin fluorescence; series mostly up to 76.6 µM; activity change, negative = inhibition: at the top concentration.
How it was run: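 IDH1-R132H (0.5 ug/mL) preincubated 30 min with compound, then NADPH (0.016 mM) and alpha-KG (2 mM) added; 80 min at RT, pH 7.5. Remaining NADPH coupled via diaphorase/resazurin to fluorescence (540/590 nm); concentration-response curves normalized to no-enzyme control.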
% is set by controls: 0 for no effect and ±100 for the full control effect; potency is the fitted concentration of half-maximal effect; tags give direction and shape of the fitted curve.
Note: nearly all actives have a fitted effect of over 65% in size.

Compound | Potency | activity change, negative = inhibition
CCOc1cc(C=C2C(=O)c3ccccc3C2=O)ccc1OCC(=O)Nc1ccc(C)cc1 | inconclusive: 11.2 µM [inhibitor, full curve] | 
CC1(S(=O)(=O)O)CC(=O)c2ccccc2C1=O (stereo unspecified) | inconclusive: 50.1 µM [inhibitor, partial curve, poor fit] | 
O=C(COc1ccc(Cl)cc1)NCCSCc1ccccc1Cl |  | inactive: 1.32%
CC(=O)C1(C)CCC2C3C=C(C)C4=CC(=O)CCC4(C)C3CCC21C (stereo unspecified) | inconclusive: 58.5 µM [inhibitor, single point] | 
O=C(NCc1ccccc1Cl)c1c2c(nc3ccccc13)C(=O)N(C1CCCCC1)C2 |  | inactive: 0%
Cc1ccc(N(C(=O)Cc2c[nH]c3ccccc23)C(C(=O)NC2CCCCC2)c2ccco2)cc1 (stereo unspecified) | inconclusive: 5.85 µM [inhibitor, full curve] | 
Cc1ccc(-c2nnc3ccc(SCC(=O)N4CCCc5ccccc54)nn23)cc1 | inconclusive: 58.5 µM [inhibitor, single point] | 
CC(=O)c1ccc(NC(=O)CSc2cn(CC(=O)N(C(C)C)C(C)C)c3ccccc23)cc1 | inconclusive: 50.1 µM [inhibitor, single point] | 
COc1ccccc1OCCOc1ccc(/C=C2\C(=N)N3N=C(S(C)(=O)=O)SC3=NC2=O)cc1 | inconclusive: 58.5 µM [inhibitor, single point] | 
Cc1cccc(N2C(S)=C(C#N)C(=O)NC2c2ccco2)c1 (stereo unspecified) | inconclusive: 58.5 µM [inhibitor, single point] | 
COc1ccc(C2C(C#N)=C3NC(=O)c4c(sc5c4CCCCC5)N3C3=C2C(=O)CC(C)(C)C3)cc1 (stereo unspecified) | inconclusive: 4.65 µM [inhibitor, partial curve, poor fit] | 
CC(=O)Nc1ccc(-n2cc3c(c2-c2ccc(C)cc2)c(=O)n(C)c(=O)n3C)cc1 | inconclusive: 44.7 µM [inhibitor, partial curve, poor fit] | 
Cc1ccc(-n2c(C)cc(C(=O)COc3cccnc3[N+](=O)[O-])c2C)cc1 |  | inactive: 15.9%
Cc1ccc(CSc2nc3ccncc3[nH]2)cc1 |  | inactive: 1.37%
O=C(NCCN1CCOCC1)c1ccc(S(=O)(=O)Nc2ccccc2)cc1 |  | inactive: -17.3%
Cc1cc(C)c(Nc2cc(S(=O)(=O)O)c(N)c3c2C(=O)c2ccccc2C3=O)c(C)c1 | inconclusive: 58.5 µM [inhibitor, single point] | 
N#CC1=C(S)N(c2ccccc2)C(c2ccc(-c3ccccc3Cl)o2)NC1=O (stereo unspecified) | inconclusive: 58.5 µM [inhibitor, single point] | 
Clc1ccc(CSc2nnc(-c3ccc4c(c3)OCO4)o2)cc1 |  | inactive: -1.28%
O=C1N=C2SCCN2/C1=C\c1c(Cl)cccc1Cl | inconclusive: 41.4 µM [inhibitor, partial curve] | 
COc1ccc2cc(C(=O)NCc3ccccc3)c(=Nc3ccc(C(=O)O)cc3)oc2c1 | inconclusive: 52.1 µM [inhibitor, single point] | 
CCC(C)n1c(=N)c(S(=O)(=O)c2ccccc2)cc2c(=O)n3ccccc3nc21 (stereo unspecified) | inconclusive: 39.8 µM [inhibitor, partial curve] | 

Compound | Potency | activity change, negative = inhibition
Cc1cc(=O)c(C(=O)O)cn1Nc1ccc(F)cc1 |  | inactive: 0%
CC(C)(C)c1ccc(S(=O)(=O)c2cnc(SCC(=O)Nc3ccc(F)c(Cl)c3)[nH]c2=O)cc1 | inconclusive: 44.7 µM [inhibitor, single point] | 
O=C1CC(c2ccco2)CC(O)=C1C=Nc1cc(Cl)ccc1O (stereo unspecified) |  | inactive: 13.5%
O=C(O)c1ccc(Cl)c(S(=O)(=O)N(Cc2ccccc2)c2ccc(F)cc2)c1 | inconclusive: 58.5 µM [inhibitor, single point] | 
CN(C(=O)c1oc(=O)c2ccccc2c1-c1ccccc1)c1cccc(Cl)c1 |  | inactive: 34.5%
CCc1nn2c(=O)cc(COc3ccc(NC(=O)c4ccco4)cc3)nc2s1 |  | inactive: 1.15%
Cc1cccc(N=C2Sc3nc4c(C)c(C)ccc4cc3CN2CCN2CCOCC2)c1 | inconclusive: 14.7 µM [inhibitor, partial curve, poor fit] | 
CCCCOc1ccc(/C=N/NC(=S)Nc2cccc(C)c2C)cc1 | inconclusive: 11.7 µM [inhibitor, full curve] | 
Cc1ccccc1NCC(=O)c1ccc(Br)cc1 | inconclusive: 46.5 µM [inhibitor, partial curve] | 
CCCC1C2CN(C(C)C)CC=C2C(C#N)=C(N)C1(C#N)C#N (stereo unspecified) | inconclusive: 52.1 µM [inhibitor, partial curve, poor fit] | 
Cc1ccc(Cl)cc1N1CCN(C(=O)C(C)n2ncn3cccc3c2=O)CC1 (stereo unspecified) | inconclusive: 50.1 µM [inhibitor, single point] | 
CCOc1ccc(-c2nnc3ccc(SCC(=O)Nc4nc5ccccc5s4)nn23)cc1 | inconclusive: 41.4 µM [inhibitor, partial curve, poor fit] | 
C[C@H](CO)N1C[C@H](C)[C@@H](CN(C)Cc2ccc3c(c2)OCO3)Oc2c(NC(=O)C3CCCCC3)cccc2C1=O | inconclusive: 44.7 µM [inhibitor, partial curve, poor fit] | 
CCOC(=O)c1cccc(NC(=O)Cc2ccc(NC(=O)N3CCCCc4ccccc43)cc2)c1 |  | inactive: 2.97%
CCOc1ccccc1C(=O)Nc1cc2c(cc1N1CCCC1)n(CC)c(=O)n2CC | active: 46.5 µM | 
COC(=O)c1ccccc1NC(=S)N(Cc1ccc2c(c1)OCO2)Cc1cc2ccc(OC)cc2[nH]c1=O |  | inactive: 3.02%
Cc1cccc(-n2c(SCC(=O)Nc3ccccc3Cl)nc3n[nH]c(C)c3c2=N)c1 | inconclusive: 31.6 µM [inhibitor, partial curve] | 
O=C(CC1C(=O)N(c2ccc(F)cc2)C(=O)N1Cc1ccc2c(c1)OCO2)Nc1ccc(F)cc1 (stereo unspecified) | inconclusive: 50.1 µM [inhibitor, single point] | 
O=C(c1ccco1)N1CCN(c2c(-c3ccccc3)c3cc(Cl)ccc3[nH]c2=O)CC1 | inconclusive: 18.5 µM [inhibitor, full curve] | 
C=CCn1c(=O)/c(=C/c2ccc(Cl)cc2)s/c1=C(\C#N)c1nnc2n1CCCCC2 | inconclusive: 58.5 µM [inhibitor, single point] | 
